Here are results for 17 molecules from the supplement of paper PMC3694890.

± gives the uncertainty stated by the source. This is one part of the list. A small y stands for phosphotyrosine.
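Also: phosphopeptide probes on the chip at 1–4 µM, lysate proteins bound in 20 mM Tris pH 7.0 buffer with 140 mM NaCl, 1% Triton X-100 and 5% glycerol.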

The target in the first experiment is GRB2 (endogenous complexes from cell lysate), P62993. As to the kind of experiment: GRB2 complex binding differential signal (pY peptide minus Ala control peptide) (fluorescence intensity units); higher = stronger GRB2 complex binding. Conditions: MCF7.
In the case of yIPINA [VEGFR1_1169/A1], the “GRB2 complex binding differential signal” value was found to be 800 ± 1100.

Take yENPDE [BLNK_72/A1]: the “GRB2 complex binding differential signal” value amounted to 6430 ± 1400.

Consider yKNPDY [VEGFR1_1048/A1], for which the “GRB2 complex binding differential signal” value worked out at 4150 ± 670.

Take yTEVDP [TXNIP_Y378/A1]: the “GRB2 complex binding differential signal” value worked out at 1200 ± 240.

For the molecule yAPPGK [TR150_476/A1], the “GRB2 complex binding differential signal” value came out at 7040 ± 1800.

Turning to yQGDSS [VEGFR1_1242/A1], the “GRB2 complex binding differential signal” value worked out at 656 ± 430.

As to yDCVPC [VAV2_159/A1], the “GRB2 complex binding differential signal” value is 40.9 ± 630.

For the molecule ySPRRG [TR150_118/A1], the “GRB2 complex binding differential signal” value was found to be 931 ± 220.

yYSEYC [VAV1_844/A1]: the “GRB2 complex binding differential signal” value is -30.3 ± 270.

As for yQNRDF [TR150_68/A1], the “GRB2 complex binding differential signal” value was 25600 ± 8500.

On to yVSSFG [TXK_420/A1], for which the “GRB2 complex binding differential signal” value was 997 ± 390.

For yNSVVL [VEGFR1_1327/A1], the “GRB2 complex binding differential signal” value was -1790 ± 2600.

Regarding yDFLPR [TXK_91/A1], the “GRB2 complex binding differential signal” value stood at 1730 ± 660.

On to yEDLMR [VAV1_174/A1], for which the “GRB2 complex binding differential signal” value came out at 1090 ± 420.

In the case of yVNAFK [VEGFR1_1213/A1], the “GRB2 complex binding differential signal” value came out at 55500 ± 5500.

On to yKGLPD [VAV3_141/A1], for which the “GRB2 complex binding differential signal” value was determined as 1150 ± 370.

For the molecule yDCVEN [VAV1_160/A1], the “GRB2 complex binding differential signal” value was 118 ± 180.

Still in this experiment, the particulars now being: MCF10A.
On to yIPINA [VEGFR1_1169/A1], for which the “GRB2 complex binding differential signal” value is 287 ± 1200.

Take yENPDE [BLNK_72/A1]: the “GRB2 complex binding differential signal” value is 3880 ± 690.

With yKNPDY [VEGFR1_1048/A1], the “GRB2 complex binding differential signal” value was determined as 2420 ± 900.

Take yTEVDP [TXNIP_Y378/A1]: the “GRB2 complex binding differential signal” value was 858 ± 320.

On to yAPPGK [TR150_476/A1], for which the “GRB2 complex binding differential signal” value amounted to 3360 ± 650.

Regarding yQGDSS [VEGFR1_1242/A1], the “GRB2 complex binding differential signal” value came to 575 ± 300.

As to yDCVPC [VAV2_159/A1], the “GRB2 complex binding differential signal” value was 92.5 ± 130.

With ySPRRG [TR150_118/A1], the “GRB2 complex binding differential signal” value came out at 233 ± 280.

On to yYSEYC [VAV1_844/A1], for which the “GRB2 complex binding differential signal” value stood at 72.2 ± 170.

As to yQNRDF [TR150_68/A1], the “GRB2 complex binding differential signal” value is 18200 ± 2600.

As for yVSSFG [TXK_420/A1], the “GRB2 complex binding differential signal” value was 429 ± 350.

With yNSVVL [VEGFR1_1327/A1], the “GRB2 complex binding differential signal” value came to 1120 ± 290.

With yDFLPR [TXK_91/A1], the “GRB2 complex binding differential signal” value is 405 ± 320.

Turning to yEDLMR [VAV1_174/A1], the “GRB2 complex binding differential signal” value is -362 ± 960.

Turning to yVNAFK [VEGFR1_1213/A1], the “GRB2 complex binding differential signal” value came to 40700 ± 3600.

In the case of yKGLPD [VAV3_141/A1], the “GRB2 complex binding differential signal” value amounted to 4290 ± 1400.

As for yDCVEN [VAV1_160/A1], the “GRB2 complex binding differential signal” value turned out to be 104 ± 220.

Staying with this experiment, now noted: MDA-MB-231.
Turning to yIPINA [VEGFR1_1169/A1], the “GRB2 complex binding differential signal” value amounted to 763 ± 460.

yENPDE [BLNK_72/A1]: the “GRB2 complex binding differential signal” value amounted to 9850 ± 790.

With yKNPDY [VEGFR1_1048/A1], the “GRB2 complex binding differential signal” value stood at 2220 ± 640.

In the case of yTEVDP [TXNIP_Y378/A1], the “GRB2 complex binding differential signal” value turned out to be 654 ± 320.

On to yAPPGK [TR150_476/A1], for which the “GRB2 complex binding differential signal” value was determined as 995 ± 370.

With yQGDSS [VEGFR1_1242/A1], the “GRB2 complex binding differential signal” value came to 1400 ± 320.

As to yDCVPC [VAV2_159/A1], the “GRB2 complex binding differential signal” value was 335 ± 210.

Turning to ySPRRG [TR150_118/A1], the “GRB2 complex binding differential signal” value was 499 ± 300.

For yYSEYC [VAV1_844/A1], the “GRB2 complex binding differential signal” value was 253 ± 250.

As for yQNRDF [TR150_68/A1], the “GRB2 complex binding differential signal” value came out at 5300 ± 960.

On to yVSSFG [TXK_420/A1], for which the “GRB2 complex binding differential signal” value worked out at 938 ± 370.

As for yNSVVL [VEGFR1_1327/A1], the “GRB2 complex binding differential signal” value came to 725 ± 340.

With yDFLPR [TXK_91/A1], the “GRB2 complex binding differential signal” value worked out at 447 ± 350.

Turning to yEDLMR [VAV1_174/A1], the “GRB2 complex binding differential signal” value amounted to 652 ± 270.

For the molecule yVNAFK [VEGFR1_1213/A1], the “GRB2 complex binding differential signal” value was found to be 11700 ± 1800.

Consider yKGLPD [VAV3_141/A1], for which the “GRB2 complex binding differential signal” value came out at 1200 ± 300.

Turning to yDCVEN [VAV1_160/A1], the “GRB2 complex binding differential signal” value worked out at 167 ± 310.

The same experiment, now with this note: T47D.
For yIPINA [VEGFR1_1169/A1], the “GRB2 complex binding differential signal” value turned out to be 1900 ± 1100.

As for yENPDE [BLNK_72/A1], the “GRB2 complex binding differential signal” value came to 13500 ± 2900.

For yKNPDY [VEGFR1_1048/A1], the “GRB2 complex binding differential signal” value came out at 8880 ± 2900.

For the molecule yTEVDP [TXNIP_Y378/A1], the “GRB2 complex binding differential signal” value is -95.8 ± 3400.

In the case of yAPPGK [TR150_476/A1], the “GRB2 complex binding differential signal” value amounted to 1280 ± 960.

For yQGDSS [VEGFR1_1242/A1], the “GRB2 complex binding differential signal” value was found to be 2530 ± 1600.

Take yDCVPC [VAV2_159/A1]: the “GRB2 complex binding differential signal” value stood at 172 ± 870.

Regarding ySPRRG [TR150_118/A1], the “GRB2 complex binding differential signal” value was 529 ± 1200.

On to yYSEYC [VAV1_844/A1], for which the “GRB2 complex binding differential signal” value was found to be 192 ± 1600.

Take yQNRDF [TR150_68/A1]: the “GRB2 complex binding differential signal” value worked out at 18900 ± 3000.

As to yVSSFG [TXK_420/A1], the “GRB2 complex binding differential signal” value is 1600 ± 1100.

For yNSVVL [VEGFR1_1327/A1], the “GRB2 complex binding differential signal” value worked out at 1510 ± 1200.

On to yDFLPR [TXK_91/A1], for which the “GRB2 complex binding differential signal” value turned out to be 895 ± 920.

On to yEDLMR [VAV1_174/A1], for which the “GRB2 complex binding differential signal” value came to 998 ± 1600.

With yVNAFK [VEGFR1_1213/A1], the “GRB2 complex binding differential signal” value came to 31700 ± 7000.

Turning to yKGLPD [VAV3_141/A1], the “GRB2 complex binding differential signal” value worked out at 1200 ± 990.

As for yDCVEN [VAV1_160/A1], the “GRB2 complex binding differential signal” value worked out at 124 ± 880.
